Results are given in words; binding and its absence hold for the method and conditions named. Binding seen in cells or lysates may run through a third protein. Some binding calls cover weakened binding; strength is not graded here.

Sequences of proteins named here, by UniProt entry; tags and fusion partners are left off. A change or cut given only in a name is not applied to a line headed by its entry. A line that says so, or that is headed by a name, gives the form on record, which may keep a tag or linker. Residues count along the entry.
UniProt Q96GF1: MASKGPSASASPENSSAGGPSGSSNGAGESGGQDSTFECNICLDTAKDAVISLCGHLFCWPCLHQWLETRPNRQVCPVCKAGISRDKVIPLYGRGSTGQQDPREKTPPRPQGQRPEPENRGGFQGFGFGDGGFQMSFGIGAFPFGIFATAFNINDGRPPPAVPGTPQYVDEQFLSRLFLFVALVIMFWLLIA
RNF185 deletion mutant ∆171–192: residues 1-170 of Q96GF1
RNF185 deletion mutant ∆133–192: residues 1-132 of Q96GF1
RNF185 deletion mutant ∆2–18 (Q96GF1, form named): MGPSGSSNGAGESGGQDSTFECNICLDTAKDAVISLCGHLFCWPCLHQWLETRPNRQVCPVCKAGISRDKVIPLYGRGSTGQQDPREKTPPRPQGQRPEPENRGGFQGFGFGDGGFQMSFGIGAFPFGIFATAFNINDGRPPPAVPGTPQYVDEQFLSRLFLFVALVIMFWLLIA
RNF185 deletion mutant ∆81–132 (Q96GF1, form named): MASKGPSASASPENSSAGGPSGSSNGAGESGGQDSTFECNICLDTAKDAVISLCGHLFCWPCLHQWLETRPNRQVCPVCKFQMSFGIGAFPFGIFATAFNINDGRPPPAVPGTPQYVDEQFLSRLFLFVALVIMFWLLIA
RNF185 deletion mutant ∆133–155 (Q96GF1, form named): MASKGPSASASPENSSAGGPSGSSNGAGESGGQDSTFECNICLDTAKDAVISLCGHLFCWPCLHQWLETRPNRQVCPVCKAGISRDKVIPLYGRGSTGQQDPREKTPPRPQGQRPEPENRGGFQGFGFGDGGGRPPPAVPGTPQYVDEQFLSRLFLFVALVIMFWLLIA
RNF185 deletion mutant ∆19–38 (Q96GF1, form named): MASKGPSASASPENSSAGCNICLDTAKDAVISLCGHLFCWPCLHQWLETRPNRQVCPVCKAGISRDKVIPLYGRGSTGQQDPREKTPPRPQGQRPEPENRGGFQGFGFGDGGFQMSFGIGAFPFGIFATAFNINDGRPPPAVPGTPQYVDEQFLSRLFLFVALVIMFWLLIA
UniProt Q05320, residues 33-676: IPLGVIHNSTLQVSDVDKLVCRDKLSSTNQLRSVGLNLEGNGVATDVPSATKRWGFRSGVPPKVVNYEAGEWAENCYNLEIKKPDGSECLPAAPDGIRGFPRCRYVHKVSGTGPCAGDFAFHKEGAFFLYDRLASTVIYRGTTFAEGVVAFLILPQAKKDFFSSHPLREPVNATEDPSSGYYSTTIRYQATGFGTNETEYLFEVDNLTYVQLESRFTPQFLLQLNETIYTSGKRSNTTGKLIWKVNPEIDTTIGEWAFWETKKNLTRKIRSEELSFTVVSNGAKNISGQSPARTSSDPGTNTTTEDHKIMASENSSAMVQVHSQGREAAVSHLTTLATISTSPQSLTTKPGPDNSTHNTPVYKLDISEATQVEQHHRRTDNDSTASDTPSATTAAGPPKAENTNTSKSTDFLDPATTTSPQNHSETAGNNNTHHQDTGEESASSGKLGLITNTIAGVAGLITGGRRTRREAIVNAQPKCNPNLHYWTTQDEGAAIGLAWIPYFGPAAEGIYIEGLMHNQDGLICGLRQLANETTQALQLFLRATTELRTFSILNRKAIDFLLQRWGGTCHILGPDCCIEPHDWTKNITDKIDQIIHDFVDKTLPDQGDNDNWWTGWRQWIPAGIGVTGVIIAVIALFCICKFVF

For one substance, binding results are on record in paper PMC9554868.

Holding throughout (assay): co-IP
Assay [1] deals with RNF185 deletion mutant ∆133–192 (UniProt Q96GF1).
For assay [2], the target named is RNF185 deletion mutant ∆2–18 (UniProt Q96GF1).
The target in assay [3] is RNF185 deletion mutant ∆81–132 (UniProt Q96GF1).
In assay [4] the target is RNF185 deletion mutant ∆171–192 (UniProt Q96GF1).
In assay [5] the target is RNF185 deletion mutant ∆133–155 (UniProt Q96GF1).
The target of assay [6] is RNF185 deletion mutant ∆19–38 (UniProt Q96GF1).

In the case of “Zaire ebolavirus (EBOV) glycoprotein GP1,2 (from UniProt Q05320)”, the binding result in assay [1] is “no binding”; in assay [2], “binds”; in assay [3] it was “binds”; in assay [4], “no binding”; in assay [5], “binds”; in assay [6], “binds”.
